Results: PubChem BioAssay AID1984 (Sanford-Burnham Center for Chemical Genomics, 2009)
This is one part of the list. Shown are side measurements of this screen, not its main read-out; they come without a call.

Molecular target: p/CIP-EGFP fusion (nuclear receptor coactivator 3, mouse) (UniProt Q05BA5)
Assay: p/CIP-EGFP fusion destabilizers, primary screen, fluorescence, F442A cells (AID 1984)
Details: 16 h
[1] = measured here: confirmation repeats at 10 uM, at 10 µM
[2] = measured here: confirmation repeats at 20 uM, at 20 µM

| Compound | decrease of EGFP signal [1] | decrease of EGFP signal [2] |
| --- | --- | --- |
| Cc1ccc(NC2=C/C(=N\S(=O)(=O)c3cccs3)c3ccccc3C2=O)c(C)c1 | 25.3% | 35.7% |
| O=C1C(Cl)=C(NCCN2CCCCC2)C(=O)c2ccccc21 | 13.7% | 70.3% |
| O=C1C(Nc2ccccc2)=C/C(=N/S(=O)(=O)c2cccs2)c2ccccc21 | 34.6% | 42.2% |
| CC(C)(C)c1cc[n+](C2=C([O-])c3ccccc3C(=O)/C2=N\S(=O)(=O)c2cccs2)cc1 | 13.1% | 47.3% |
| CCCc1nc2c(=O)n(C)c(=O)nc-2n(C)n1 | 40.8% | 39.5% |
| COc1ccc(CS(=O)/C(Cl)=C(/Cl)C(=O)Nc2ccc(OC)nc2)cc1 (stereo not drawn) | 8.9% | 38.4% |
| CCOC(=O)c1c(C)[nH]c2c1-c1ccccc1C(=O)C2=O | 69.2% | 68.4% |
| O=C1C(Nc2ccc(O)cc2)=C/C(=N/S(=O)(=O)c2cccs2)c2ccccc21 | 42.7% | 38.5% |
| Cc1ccccc1NC1=C/C(=N\S(=O)(=O)c2cccs2)c2ccccc2C1=O | 30.7% | 34.6% |
| COc1ccc(NC(=O)/C(Cl)=C(/Cl)S(=O)Cc2ccc(Cl)cc2)cn1 (stereo not drawn) | -8% | 49% |
| CCOC(=O)N=Nc1c2ccccc2c2nc3no[nH]c3nc12 | 32.5% | 35.6% |
| CC1CCN(S(=O)(=O)c2ccc3c(c2)C(=NO)c2cc(S(=O)(=O)N4CCC(C)CC4)ccc2-3)CC1 | 72.4% | 71.9% |
| Cc1oc2c(c1C(=O)NCc1cccnc1)C(=O)c1ccccc1C2=O | 43.5% | 37.2% |
| Nc1ccc2c(c1)C(=O)C(=O)c1ccccc1-2 | 59% | 40.4% |
